# The list shows a part of the results.
# B1: PNA (Arachis hypogaea), P02872 (protein)
# chain: MKPFCVFLTFFLLLAASSKKVDSAETVSFNFNSFSEGNPAINFQGDVTVLSNGNIQLTNLNKVNSVGRVLYAMPVRIWSSATGNVASFLTSFSFEMKDIKDYDPADGIIFFIAPEDTQIPAGSIGGGTLGVSDTKGAGHFVGVEFDTYSNSEYNDPPTDHVGIDVNSVDSVKTVPWNSVSGAVVKVTVIYDSSTKTLSVAVTNDNGDITTIAQVVDLKAKLPERVKFGFSASGSLGGRQIHLIRSWSFTSTLITTTRRSIDNNEKKIMNMASA
# What was measured:
# Experiment in all cases: glycan array binding signal (z-score within array); higher = stronger binding
# Settings in all cases: glycan notation: IUPAC condensed, linker removed
# Kdn(a2-6)Gal(b1-4)GlcNAc = biological target: Kdn(a2-6)Gal(b1-4)GlcNAc
# Procedure, shortened: (§1)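 The binding signal is a Z-score computed within each array. Data were drawn from 3228 arrays in the Consortium for Functional Glycomics database, restricted to those with a known protein sequence. Scores were averaged over arrays of the same protein sequence at different concentrations or buffers, and over linkers, and negative values can be taken as non-binding.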
# Man(a1-2)Man = biological target: Man(a1-2)Man
# Procedure, shortened: as §1
# [1] = biological target: Man(a1-2)Man(a1-2)Man(a1-3)Man
# Procedure, shortened: as §1
# [2] = biological target: Man(a1-2)Man(a1-2)Man(a1-3)[Man(a1-2)Man(a1-3)[Man(a1-2)Man(a1-6)]Man(a1-6)]Man(b1-4)GlcNAc(b1-4)GlcNAc
# Procedure, shortened: as §1
# [3] = biological target: Man(a1-2)Man(a1-2)Man(a1-3)[Man(a1-2)Man(a1-6)[Man(a1-3)]Man(a1-6)]Man(b1-4)GlcNAc(b1-4)GlcNAc
# Procedure, shortened: as §1
# [4] = biological target: Man(a1-2)Man(a1-2)Man(a1-3)[Man(a1-3)[Man(a1-6)]Man(a1-6)]Man(b1-4)GlcNAc(b1-4)GlcNAc
# Procedure, shortened: as §1
# [5] = biological target: Man(a1-2)Man(a1-2)Man(a1-6)[Man(a1-3)]Man
# Procedure, shortened: as §1
# Man(a1-2)Man(a1-3)Man = biological target: Man(a1-2)Man(a1-3)Man
# Procedure, shortened: as §1
# [6] = biological target: Man(a1-2)Man(a1-3)[Man(a1-2)Man(a1-6)[Man(a1-3)]Man(a1-6)]Man(b1-4)GlcNAc(b1-4)GlcNAc
# Procedure, shortened: as §1
# [7] = biological target: Man(a1-2)Man(a1-3)[Man(a1-2)Man(a1-6)]Man
# Procedure, shortened: as §1
# [8] = biological target: Man(a1-2)Man(a1-3)[Man(a1-2)Man(a1-6)]Man(a1-6)[Man(a1-2)Man(a1-2)Man(a1-3)]Man
# Procedure, shortened: as §1
# [9] = biological target: Man(a1-2)Man(a1-3)[Man(a1-2)Man(a1-6)]Man(a1-6)[Man(a1-2)Man(a1-2)Man(a1-3)]Man(b1-4)GlcNAc(b1-4)GlcNAc
# Procedure, shortened: as §1
# [10] = biological target: Man(a1-2)Man(a1-3)[Man(a1-3)[Man(a1-6)]Man(a1-6)]Man(b1-4)GlcNAc(b1-4)GlcNAc
# Procedure, shortened: as §1
# [11] = biological target: Man(a1-2)Man(a1-3)[Man(a1-6)]Man(a1-6)[Man(a1-2)Man(a1-3)]Man(b1-4)GlcNAc(b1-4)GlcNAc
# Procedure, shortened: as §1
# [12] = biological target: Man(a1-2)Man(a1-6)[Man(a1-3)]Man(a1-6)[Man(a1-2)Man(a1-2)Man(a1-3)]Man
# Procedure, shortened: as §1
# [13] = biological target: Man(a1-2)Man(a1-6)[Man(a1-3)]Man(a1-6)[Man(a1-2)Man(a1-2)Man(a1-3)]Man(b1-4)GlcNAc(b1-4)GlcNAc
# Procedure, shortened: as §1
# Man(a1-3)Man = biological target: Man(a1-3)Man
# Procedure, shortened: as §1
# [14] = biological target: Man(a1-3)Man(a1-6)[Man(a1-3)]Man(b1-4)GlcNAc(b1-4)GlcNAc
# Procedure, shortened: as §1
# Man(a1-3)Man(b1-4)GlcNAc = biological target: Man(a1-3)Man(b1-4)GlcNAc
# Procedure, shortened: as §1
# Man(a1-3)[Man(a1-6)]Man = biological target: Man(a1-3)[Man(a1-6)]Man
# Procedure, shortened: as §1
# [15] = biological target: Man(a1-3)[Man(a1-6)]Man(a1-6)Man(b1-4)GlcNAc(b1-4)GlcNAc
# Procedure, shortened: as §1
# [16] = biological target: Man(a1-3)[Man(a1-6)]Man(a1-6)[Man(a1-2)Man(a1-3)]Man(b1-4)GlcNAc(b1-4)GlcNAc
# Procedure, shortened: as §1
# [17] = biological target: Man(a1-3)[Man(a1-6)]Man(a1-6)[Man(a1-3)]Man
# Procedure, shortened: as §1
# [18] = biological target: Man(a1-3)[Man(a1-6)]Man(a1-6)[Man(a1-3)]Man(b1-4)GlcNAc(b1-4)GlcNAc
# Procedure, shortened: as §1
# [19] = biological target: Man(a1-3)[Man(a1-6)]Man(b1-4)GlcNAc(b1-4)GlcNAc
# Procedure, shortened: as §1
# [20] = biological target: Man(a1-3)[Man(a1-6)]Man(b1-4)GlcNAc(b1-4)[Fuc(a1-6)]GlcNAc
# Procedure, shortened: as §1
# Man(a1-6)Man = biological target: Man(a1-6)Man
# Procedure, shortened: as §1
# [21] = biological target: Man(a1-6)Man(b1-4)GlcNAc(b1-4)GlcNAc
# Procedure, shortened: as §1
# Man(b1-4)GlcNAc = biological target: Man(b1-4)GlcNAc
# Procedure, shortened: as §1
# [22] = biological target: Man(b1-4)Man(b1-4)Man(b1-4)Man
# Procedure, shortened: as §1
# [23] = biological target: Man(b1-4)Man(b1-4)Man(b1-4)Man(b1-4)Man
# Procedure, shortened: as §1
# [24] = biological target: Man(b1-4)Man(b1-4)Man(b1-4)Man(b1-4)Man(b1-4)Man
# Procedure, shortened: as §1
# [25] = biological target: Man6P(a1-3)Man(a1-3)Man(a1-3)Man(a1-2)Man
# Procedure, shortened: as §1
# MurNAc(b1-4)GlcNAc = biological target: MurNAc(b1-4)GlcNAc
# Procedure, shortened: as §1
# Neu(a2-3)Gal(b1-4)Glc = biological target: Neu(a2-3)Gal(b1-4)Glc
# Procedure, shortened: as §1
# [26] = biological target: Neu(a2-3)Gal(b1-4)GlcNAc(b1-3)Gal(b1-4)[Fuc(a1-3)]GlcNAc(b1-3)Gal(b1-4)Glc
# Procedure, shortened: as §1
# [27] = biological target: Neu(a2-3)Gal(b1-4)GlcNAc6S(b1-3)Gal(b1-4)Glc
# Procedure, shortened: as §1
binder,measurement,setting,value
B1,glycan array binding signal (z-score),Kdn(a2-6)Gal(b1-4)GlcNAc,-0.203
same,glycan array binding signal (z-score),Man(a1-2)Man,-0.195
same,glycan array binding signal (z-score),[1],-0.184
same,glycan array binding signal (z-score),[2],-0.195
same,glycan array binding signal (z-score),[3],-0.195
same,glycan array binding signal (z-score),[4],-0.195
same,glycan array binding signal (z-score),[5],-0.14
same,glycan array binding signal (z-score),Man(a1-2)Man(a1-3)Man,-0.146
same,glycan array binding signal (z-score),[6],-0.195
same,glycan array binding signal (z-score),[7],-0.126
same,glycan array binding signal (z-score),[8],-0.204
same,glycan array binding signal (z-score),[9],-0.089
same,glycan array binding signal (z-score),[10],-0.195
same,glycan array binding signal (z-score),[11],-0.168
same,glycan array binding signal (z-score),[12],-0.119
same,glycan array binding signal (z-score),[13],-0.178
same,glycan array binding signal (z-score),Man(a1-3)Man,-0.051
same,glycan array binding signal (z-score),[14],-0.195
same,glycan array binding signal (z-score),Man(a1-3)Man(b1-4)GlcNAc,-0.195
same,glycan array binding signal (z-score),Man(a1-3)[Man(a1-6)]Man,-0.164
same,glycan array binding signal (z-score),[15],-0.195
same,glycan array binding signal (z-score),[16],0.296
same,glycan array binding signal (z-score),[17],-0.129
same,glycan array binding signal (z-score),[18],-0.186
same,glycan array binding signal (z-score),[19],-0.16
same,glycan array binding signal (z-score),[20],-0.194
same,glycan array binding signal (z-score),Man(a1-6)Man,-0.004
same,glycan array binding signal (z-score),[21],-0.195
same,glycan array binding signal (z-score),Man(b1-4)GlcNAc,-0.219
same,glycan array binding signal (z-score),[22],-0.195
same,glycan array binding signal (z-score),[23],-0.144
same,glycan array binding signal (z-score),[24],-0.035
same,glycan array binding signal (z-score),[25],-0.195
same,glycan array binding signal (z-score),MurNAc(b1-4)GlcNAc,-0.183
same,glycan array binding signal (z-score),Neu(a2-3)Gal(b1-4)Glc,-0.195
same,glycan array binding signal (z-score),[26],-0.195
same,glycan array binding signal (z-score),[27],-0.195

# — the supplement of paper PMC8728848
